Out of some 340,000 compounds screened, about 6,900 (2%) were called active. Cut-off read from the data, not from the text of the source: active = inhibition above about 30%; inactive = below that, where a call was filed. This is a selection; strong and weak results do not stand in their true shares. Where no call is shown, the source filed none.

The assay deals with D(2) dopamine receptor (Homo sapiens) (UniProt P14416). Put plainly: HTS Assay for Allosteric Antagonists of the Human D2 Dopamine Receptor: Primary Screen for Antagonists. Note: 0% is about no effect. The note with it: HEK293 TREx D2 cells, calcium flux, dopamine EC80; at 10 µM; stronger effect = higher value. In outline: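 Inhibition of EC80 dopamine-driven calcium flux, recorded kinetically, defines activity here; cells are a tetracycline-induced HEK293 T-REx line expressing force-coupled D2.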
Sequence of UniProt P14416 (P14416 whole entry, looked up): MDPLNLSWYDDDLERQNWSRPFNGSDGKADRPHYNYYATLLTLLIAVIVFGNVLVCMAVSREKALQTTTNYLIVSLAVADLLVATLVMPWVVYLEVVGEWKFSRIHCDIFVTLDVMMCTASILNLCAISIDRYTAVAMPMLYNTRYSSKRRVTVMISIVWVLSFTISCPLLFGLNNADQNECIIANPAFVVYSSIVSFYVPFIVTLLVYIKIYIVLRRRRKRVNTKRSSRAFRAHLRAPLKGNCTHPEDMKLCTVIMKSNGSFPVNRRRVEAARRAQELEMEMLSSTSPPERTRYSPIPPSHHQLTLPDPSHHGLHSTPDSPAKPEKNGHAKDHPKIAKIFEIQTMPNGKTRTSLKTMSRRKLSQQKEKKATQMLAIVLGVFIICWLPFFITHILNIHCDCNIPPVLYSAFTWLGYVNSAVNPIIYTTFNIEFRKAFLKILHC
For orientation: Calcium flux is commonly read through the fluorescence of an indicator in the cells.
`Cc1c(C(=O)NCc2cccc(Br)c2)oc2ccc3c(c12)C(=O)CC(C)(C)O3`: the inhibition (commonly the drop in the measured response relative to a control, in per cent) is -1.45%.

Turning to `CCN(CC)CCCNC(=O)c1ccc(Cn2c(SCc3ccccc3)nc3cccnc32)cc1`, the inhibition turned out to be 3.64%.

In the case of `COc1ccc(-c2nc3sc(CCNC(=O)C(=O)Nc4cccc(NC(C)=O)c4)c(C)n3n2)cc1`, the inhibition was -6.23%.

As for `Nc1nn(-c2ccccc2)nc1C(=O)OCc1ccc(Cl)cc1`, the inhibition was 1.52%.

Consider `O=C(CSc1ncc(-c2ccccc2)n1C1CCCC1)N1CCc2ccccc21`, for which the inhibition is active: 30.7%.

As to `O=C(CN1CCN(CCC(=O)Nc2ccccc2F)CC1)Nc1ccc(Cl)cc1`, the inhibition was active: 129%.

Regarding `COc1c(C)cccc1C(=O)Nc1ccc(-c2nc3ccccc3s2)c(Cl)c1`, the inhibition came to 6.61%.

With `Cc1ccc(NC(=O)CC2Oc3ccccc3NC2=O)cc1C` (centres undefined), the inhibition came out at 4.88%.

`COc1ccc(C2=C(N3CCN(c4cccc(C)c4C)CC3)c3ccccc3C2=O)cc1`: the inhibition is -2.31%.

Consider `Cc1cccc(N2CCN(CCCNC(=O)c3ccc(NC(=O)C4=CSCCO4)cc3)CC2C)c1` (centres undefined), for which the inhibition is active: 36.3%.

Regarding `Cc1c(C(=O)NCc2cccc(Cl)c2)sc2nc3n(c(=O)c12)CCCC3`, the inhibition was 6.64%.

Turning to `CN1C(=O)Cc2cc(S(=O)(=O)NCc3ccccc3Cl)ccc21`, the inhibition is -6.38%.

Turning to `O=C(c1ccc(Br)cc1)N(Cc1ccco1)c1ccccn1`, the inhibition was -10.7%.

On to `O=C(Nc1ccc2c(c1)OCO2)c1cnn2cccnc12`, for which the inhibition was active: 68.9%.

Regarding `CCc1ccc(CNC(=O)c2cccc(-n3c(C)nc4cccnc43)c2)cc1`, the inhibition is 0.603%.

For `CCCc1ccc(OCc2ccc(C(=O)Nc3ccccc3C(=O)OC)o2)cc1`, the inhibition was -3.06%.

With `Cc1ccc(-n2c(C)nc3c(cnn3-c3ccccc3)c2=O)cc1`, the inhibition was determined as 18.2%.

Take `COc1ccc(N(CC(=O)N2CCCCC2)S(=O)(=O)c2ccc(OC)c(OC)c2)cc1`: the inhibition is 8.67%.

As to `Cc1ccc2oc(C(=O)N3CCC(c4nc5ccccc5s4)CC3)c(C)c2c1`, the inhibition was -8.09%.

Turning to `CC(=O)c1ccc(NC(=O)CCn2cccn2)cc1`, the inhibition was 8.86%.

With `CCc1cccc(NC(=O)C2CCCN2S(=O)(=O)c2ccc3nc(-c4ccccc4)[nH]c3c2)c1` (centres undefined), the inhibition is -1.74%.

For the molecule `CCOc1ccc(NC(=O)[C@@H](NC(=O)c2ccco2)C(C)C)cc1`, the inhibition was active: 39%.

With `Cc1ccc(OCCN2CCN(c3nc(NCc4ccco4)c4ccccc4n3)CC2)cc1`, the inhibition is active: 37.6%.

Take `COc1ccc(CNC(=O)C(CC(C)C)NS(=O)(=O)c2ccc3c(c2)oc(=O)n3C)cc1` (centres undefined): the inhibition is -23.4%.

Take `CCc1cccc(NC(=O)c2cc3c(=O)oc4ccc(C)cc4c3s2)c1`: the inhibition turned out to be 26.4%.

`CCCCN(CC)C(=O)c1ccc2c(c1)NC(=O)c1ccccc1S2`: the inhibition worked out at 2.48%.

For `CSc1nnc(NC(=O)c2cc(=O)c3cc(C)c(C)cc3o2)s1`, the inhibition stood at 18%.

`Cc1ccc(S(=O)(=O)c2cn(Cc3ccccc3)c3cc(N4CCCC4)c(F)cc3c2=O)c(C)c1`: the inhibition amounted to 5.51%.

As for `CCOc1c(CNCCSc2nnnn2C)cccc1OC`, the inhibition stood at 2.54%.

`Cc1cccc(C)c1NC(=O)C(=O)NCC(c1ccc2c(c1)OCO2)N1CCN(C)CC1` (centres undefined): the inhibition was -10.5%.

Take `COc1ccc(OC)c([C@@H]2Nc3ccc(C(=O)O)cc3[C@@H]3C=CC[C@@H]32)c1`: the inhibition is -5.67%.

As to `COc1ccc(C)cc1NC(=O)c1nnn(CC(=O)Nc2c(C)cccc2C)c1N`, the inhibition is -4.25%.

On to `Cc1ccc(C)c(S(=O)(=O)c2nnn3c2nc(NC2CCCC2)c2sccc23)c1`, for which the inhibition is -25.3%.

Regarding `CC1CCC(NC(=O)c2ccc3c(c2)N(Cc2ccccc2F)C(=O)c2ccccc2S3(=O)=O)CC1` (centres undefined), the inhibition turned out to be 9.7%.

Regarding `CCOc1ccccc1Oc1ncnc2c1oc1ccccc12`, the inhibition is -18.3%.

`Cc1ccc(S(=O)(=O)Nc2ccc(-c3ccc(N4CCCCCC4)nn3)cc2)c(C)c1`: the inhibition was -8.24%.

As to `CCOc1ccccc1CNCc1c(C(=O)O)n(Cc2ccccc2)c2cc(OC)ccc12`, the inhibition was found to be 17.9%.

For `CCOC(=O)c1cc(C)n(CC2CCC(C(=O)Nc3cccc(C(C)=O)c3)CC2)c1C` (centres undefined), the inhibition was -5.02%.

`CCOc1ccccc1C1C(C(=O)Nc2ccccc2)=C(C)Nc2nc(-c3ccccc3)nn21` (centres undefined): the inhibition is -13.3%.

`COc1ccccc1OCc1nc2ccccc2n1Cc1ccccc1`: the inhibition was -14.9%.

For the molecule `CCOc1ccccc1NCc1nnc2n1CCCCC2`, the inhibition was -26.9%.

Turning to `CC(C)NC(=O)CSc1cn(CC(=O)N2CCCCCC2)c2ccccc12`, the inhibition is -7.55%.

For `COc1ccc(N2CCN(C(=O)c3cnc(N4CCOCC4)c4ccccc34)CC2)cc1`, the inhibition came to 4.54%.

`CCc1ccccc1N(C)C(=O)c1nn(-c2ccc(OC)cc2)c(=O)c2c1c1ccccc1n2C`: the inhibition was -10.4%.

In the case of `CCOc1ccc(CNc2cc(C)nc3nc(-c4cccc(C)c4)nn23)cc1OC`, the inhibition stood at 5.15%.

As to `Cc1cccc(NC(=O)c2ccc3oc(=O)c(S(=O)(=O)c4ccc(F)cc4)cc3c2)c1C`, the inhibition was -14.2%.

Consider `CC1CCc2c(sc3nnn(Cc4ccccc4Cl)c(=O)c23)C1` (centres undefined), for which the inhibition is -6.96%.

Turning to `CCCC(C)C(=O)OCC(=O)Nc1c(Br)cc(C)cc1Br` (centres undefined), the inhibition is active: 39.9%.

Regarding `CCOc1ccc(S(=O)(=O)c2cc3cccc(OCC)c3oc2=O)cc1`, the inhibition was 0.105%.

In the case of `CC(=O)c1ccc(NC(=O)c2nc(-c3ccccc3)n(-c3ccc(C)cc3)n2)cc1`, the inhibition amounted to 3.27%.

As to `CCCOC(=O)c1cccc(NC(=O)CSc2nnc3cc(C)c4ccccc4n23)c1`, the inhibition stood at 1.02%.

`O=C(Cc1ccccc1[N+](=O)[O-])NCc1ccc(Cl)cc1Cl`: the inhibition was active: 32.9%.

Consider `COc1ccccc1NC(=O)Cn1c(=O)oc2cc(S(=O)(=O)NCc3ccccc3)ccc21`, for which the inhibition is -5.45%.

As to `Clc1ccc2nc(-c3ccc(N4CCOCC4)cc3)c(Nc3ccccc3)n2c1`, the inhibition turned out to be 2.39%.

Consider `O=C(NCc1cccc(Cl)c1)C1CCCN(c2nn3cc(-c4ccc(F)cc4)nc3s2)C1` (centres undefined), for which the inhibition amounted to 0.184%.

As to `CCc1ccc(-c2nc(CS(=O)CC(=O)NCc3ccc(F)cc3)c(C)o2)cc1` (centres undefined), the inhibition was 0.284%.

`Cc1ccc(Cl)cc1NC(=O)CN1C(=O)c2ccccc2Sc2ncccc21`: the inhibition turned out to be 17.3%.

For the molecule `Cc1ccc(CNS(=O)(=O)c2c(C)nc3sc(C)cn3c2=O)cc1`, the inhibition came out at 22.3%.

Consider `CCCn1cnc2cc(NC(=O)c3cc(OC)c(OC)c(OC)c3)ccc21`, for which the inhibition was -0.369%.

With `COc1ccc(CCNC(=O)c2ccc3c(c2)nc2n3CCCCC2)cc1OC`, the inhibition was 8.88%.

In the case of `Cc1cccc(N2CCN(Cc3nnc(-c4cccc(Br)c4)o3)CC2)c1C`, the inhibition was -19.2%.

On to `Cc1cc(NC(=O)c2ccco2)cc(-c2nc3ccccc3o2)c1O`, for which the inhibition was -11.5%.

In the case of `CCN(C(=O)CCS(=O)(=O)c1cc2c(cc1C)NC(=O)CO2)c1cccc(C)c1`, the inhibition came to 15.1%.

Take `CCn1c(C)c(C)c2cc(C(=O)N3CCN(c4ccccc4)CC3)ccc21`: the inhibition stood at 4.03%.

Consider `CN(C)CCN(Cc1ccccc1)S(=O)(=O)c1csc(C(N)=O)c1`, for which the inhibition was determined as 2.28%.

On to `O=C(Cn1ncn2cccc2c1=O)NCc1cccc(Br)c1`, for which the inhibition is 25.7%.

`COc1ccc(N(CC(C)C)S(=O)(=O)c2nnc(NC(=O)c3ccco3)s2)cc1`: the inhibition was -1.01%.

`CCOC(=O)N1CCN(Cc2nc3cc([N+](=O)[O-])ccc3n2CC)CC1`: the inhibition was active: 36.7%.

Regarding `Cc1c(Cl)cccc1NC(=O)Cn1c(=O)cc(C)c2c(C)nn(-c3cccc(F)c3)c21`, the inhibition is -17.2%.

In the case of `COc1ccccc1Cc1nc2ccccc2nc1SCC(=O)Nc1c(C)cccc1C`, the inhibition came out at 8.32%.

For `CCC(=O)Nc1cc(-c2cn3cccnc3n2)ccc1OC`, the inhibition is -13.2%.

With `CC1=C(C(=O)Nc2ccccc2)C(C(C)C)n2nc(SCc3ccccc3C)nc2N1` (centres undefined), the inhibition was -13%.

On to `CCOc1ccc(-c2cn3c(n2)sc2cc(C(=O)NCCCN4CCCCC4)ccc23)cc1`, for which the inhibition was -11.8%.

Regarding `O=c1[nH]c2c(c(=O)[nH]1)CCC2`, the inhibition is active: 36.9%.

For `COc1cc(NC(=O)c2ccc(-c3nc(CSc4ccccc4)c(C)o3)cc2)cc(OC)c1`, the inhibition was -7.98%.

In the case of `CCc1ccc(NC(=O)Cn2nc(C(F)(F)F)c3c2CCCC3)cc1`, the inhibition came to 2.08%.

In the case of `COCCCn1c(C)cc(C(=O)COC(=O)CCc2nc3ccccc3c(=O)[nH]2)c1C`, the inhibition is active: 30.5%.

As for `CCCCc1nn2c(=O)cc(COC(=O)c3ccc4c(c3)OCO4)nc2s1`, the inhibition amounted to 4.71%.

For the molecule `CCOC(=O)c1cc(-c2ccc(OC)cc2)n(CCC(=O)Nc2cccc(C)c2C)c1C`, the inhibition is -3.5%.

For `O=C(CCCn1c(=O)[nH]c2ccc(Br)cc2c1=O)N1CCN(c2cccc(Cl)c2)CC1`, the inhibition is 0.747%.

For the molecule `COc1ccccc1C(=O)NCC(c1ccc(N(C)C)cc1)N1CCc2ccccc21` (centres undefined), the inhibition was 6.1%.

Regarding `COc1cc(OC)cc(-n2c(=O)c3ccccc3n(Cc3ccccc3C#N)c2=O)c1`, the inhibition worked out at 16.1%.

Turning to `CC1CCN(S(=O)(=O)c2ccc3ncn(CC(=O)N4CCN(C)CC4)c(=O)c3c2)CC1`, the inhibition is active: 48.4%.

`COC(=O)c1ccccc1NC(=O)Cn1nnc(-c2ccc(OC)cc2)n1`: the inhibition is -18.3%.

Consider `Cc1noc(/C=C/NCc2cccnc2)c1S(=O)(=O)N(C)CC(=O)N1CCc2ccccc21`, for which the inhibition was active: 57.2%.

With `COc1cc(Nc2nn(-c3ccc(OC(F)(F)F)cc3)nc2C(C)=O)cc(OC)c1`, the inhibition was determined as 3.92%.

Consider `COc1ccc(C(=O)O)c(OC)n1`, for which the inhibition was active: 30.1%.

For `O=C(NCCc1ccc(Cl)cc1)c1ccc2nc(CCc3ccccc3)oc2c1`, the inhibition is 6.24%.

Turning to `COc1cc(OC)cc(-c2nnc(SCC(=O)c3ccc([N+](=O)[O-])cc3)o2)c1`, the inhibition was 4.87%.

With `Cc1nc(S(=O)(=O)N2CCN(c3cccc(Cl)c3)CC2)cn1C`, the inhibition was -11.9%.

Regarding `CC(C)Cn1c(CN2CCN(c3cccc(Cl)c3)CC2)nc2c1c(=O)[nH]c(=O)n2C`, the inhibition was -15.1%.

On to `COc1ccc(N(CC(=O)NCCc2ccc(C)cc2)S(=O)(=O)c2c(C)nn(C)c2C)cc1`, for which the inhibition is -2.07%.

Take `CC(C)=C1C2CCC1C1C(=O)N(NC(=O)COc3ccc(C(C)(C)C)cc3)C(=O)C21` (centres undefined): the inhibition was active: 32.1%.

As for `CC(C)Cn1c(-c2ccccc2Cl)nc2ccccc21`, the inhibition was -0.841%.

With `O=C(NCCc1ccc(Cl)cc1)c1nnc(Cc2ccc(Cl)cc2Cl)o1`, the inhibition was 7.49%.

On to `CCOc1ccc(-c2c(C)nn3c(C)c(C(=O)NCCN(C)C)cnc23)cc1OCC`, for which the inhibition turned out to be 9.12%.

In the case of `COc1ccccc1N=c1oc2cc(O)ccc2cc1C(=O)NCC1CCCO1` (centres undefined), the inhibition is active: 35.6%.

With `Cn1c(=O)c2c(nc(N3CCOCC3)n2Cc2ccccc2Cl)n(C)c1=O`, the inhibition was -11.1%.

Take `COCCCNC(=O)CCCn1c(=O)c2ccccc2n(CC(=O)Nc2ccc(C)cc2Cl)c1=O`: the inhibition came to 8.83%.

The values are drawn from PubChem BioAssay AID485344 (National Center for Advancing Translational Sciences (NCATS), 2010).
